Hit rate of the full screen: of about 310,000 compounds, about 2,200 (0.71%) showed an effect of 50% or more. The effect is printed as a negative number. The list shows a part of the results.
Biological target: human ether-à-go-go-related gene (hERG) potassium channel (human, UniProt Q12809)
Test: primary screen, population patch clamp on CHO cells stably expressing hERG

Sequence of human ether-à-go-go-related gene (hERG) potassium channel (Q12809 whole entry, looked up): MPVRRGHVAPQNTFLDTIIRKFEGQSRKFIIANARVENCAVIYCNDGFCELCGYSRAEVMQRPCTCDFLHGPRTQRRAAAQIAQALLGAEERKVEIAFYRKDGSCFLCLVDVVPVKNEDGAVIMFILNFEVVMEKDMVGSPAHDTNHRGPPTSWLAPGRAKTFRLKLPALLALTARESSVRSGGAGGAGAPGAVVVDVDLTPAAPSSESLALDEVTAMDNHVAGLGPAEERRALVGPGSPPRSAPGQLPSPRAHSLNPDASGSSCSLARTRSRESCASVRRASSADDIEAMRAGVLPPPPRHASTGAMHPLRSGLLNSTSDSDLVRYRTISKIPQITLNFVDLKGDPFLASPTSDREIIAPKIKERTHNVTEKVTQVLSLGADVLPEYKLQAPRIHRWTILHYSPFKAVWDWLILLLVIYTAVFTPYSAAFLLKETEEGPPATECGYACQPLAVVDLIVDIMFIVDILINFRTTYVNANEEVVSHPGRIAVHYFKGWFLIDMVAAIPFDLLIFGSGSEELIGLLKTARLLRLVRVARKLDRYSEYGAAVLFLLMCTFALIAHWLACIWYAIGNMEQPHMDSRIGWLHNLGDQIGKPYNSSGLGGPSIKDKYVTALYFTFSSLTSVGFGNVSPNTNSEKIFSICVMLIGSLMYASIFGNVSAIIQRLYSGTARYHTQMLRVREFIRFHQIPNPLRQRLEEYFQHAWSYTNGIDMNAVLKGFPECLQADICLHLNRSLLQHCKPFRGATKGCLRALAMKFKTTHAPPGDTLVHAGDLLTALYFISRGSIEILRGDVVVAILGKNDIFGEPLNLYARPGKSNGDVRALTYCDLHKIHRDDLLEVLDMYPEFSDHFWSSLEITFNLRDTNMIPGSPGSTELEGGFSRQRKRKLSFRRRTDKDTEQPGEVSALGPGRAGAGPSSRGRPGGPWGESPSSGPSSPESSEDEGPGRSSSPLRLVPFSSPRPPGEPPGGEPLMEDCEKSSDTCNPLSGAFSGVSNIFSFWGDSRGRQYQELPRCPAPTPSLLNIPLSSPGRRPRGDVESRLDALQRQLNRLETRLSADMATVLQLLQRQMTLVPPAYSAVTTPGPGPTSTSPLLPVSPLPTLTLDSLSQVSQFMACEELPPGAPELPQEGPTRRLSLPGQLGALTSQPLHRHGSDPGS

Going from `C=CCNC(=O)C1CC2Cn3c(nc4cc(Cl)c(Cl)cc43)C2N1C` (stereo not shown) to `Cc1nc(C(=O)N(C)C)nn1-c1ccc(Cl)cc1Cl`, the “hERG current change (%, negative = inhibition) at 1uM” value rises from -0.672% to 7.99%.

Going from `Cc1ccc(N2CC(=O)Nc3c(sc4nc(C)cc(C)c34)C2=O)cc1` to `Cc1ccc2cc(CN(C(=O)c3ccco3)c3cccc(C)c3C)c(=O)[nH]c2c1`, the “hERG current change (%, negative = inhibition) at 1uM” value rises from 5.12% to 14.9%.

First: COC(=O)C1C(=O)C2=C(CC1C)NC(=O)CC2c1ccc(F)cc1 (stereo not shown)
Second: CC1(C)CC(=O)C2=C(C1)NC(=O)CC2c1cccc(F)c1 (stereo not shown)
The “hERG current change (%, negative = inhibition) at 1uM” value of the first is higher: 21.6% for the first, -3.96% for the second.

First: N#CCCN(C(=O)COC(=O)CNC(=O)C12CC3CC(CC(C3)C1)C2)c1ccccc1
Second: NC(=O)c1ccc(NC(=O)COC(=O)C2CC(=O)N(Cc3ccccc3)C2)cc1 (stereo not shown)
The “hERG current change (%, negative = inhibition) at 1uM” value of the first is lower: -6.31% for the first, 8.73% for the second.

Compared with `O=C(Nc1cc(Cl)ccc1-n1cncn1)c1ccc([N+](=O)[O-])o1`, `O=C(Nc1cc(Cl)ccc1Oc1ccccc1)c1cnccn1` is higher in “hERG current change (%, negative = inhibition) at 1uM” value: 5.03% for the first, 13.6% for the second.

First: COc1cc(C2C(C(C)=O)=C(O)C(=O)N2Cc2ccccc2)ccc1O (stereo not shown)
Second: COc1ccc(O)c(-c2[nH]ncc2C(=O)c2ccccc2)c1
The “hERG current change (%, negative = inhibition) at 1uM” value of the first is higher: 13.6% for the first, 10% for the second.

Going from `CC(Nc1cc(N2CCNCC2)ccc1[N+](=O)[O-])c1ccccc1` (stereo not shown) to `Cc1ccccc1SCC(=O)Nc1ccc(N2CCOCC2)cc1`, the “hERG current change (%, negative = inhibition) at 1uM” value falls from 11.1% to 10.5%.

Compared with `COc1ccc(CN2C(=O)c3cccc4cccc2c34)cc1F`, `COc1ccc(N2CC(C(=O)NCCc3ccc(Cl)cc3)CC2=O)c(OC)c1` (stereo not shown) is lower in “hERG current change (%, negative = inhibition) at 1uM” value: 16% for the first, -12.5% for the second.

First: CCCC(=O)Nc1nnc(SCC)s1
Second: CC(=O)Nc1ccc(NC(=O)CSc2nnc(C)c(=O)n2N)cc1
The “hERG current change (%, negative = inhibition) at 1uM” value of the first is higher: 19% for the first, 2.82% for the second.

Compared with `Cc1cc(C(=O)Nc2ccc3c(c2)OCCO3)c2ccccc2n1`, `Cc1ccc(-c2csc3ncnc(SCC(=O)c4ccc5c(c4)OCCO5)c23)cc1` is lower in “hERG current change (%, negative = inhibition) at 1uM” value: 12% for the first, 0.145% for the second.

Going from `S=C(NCCc1ccccc1)Nc1ccc(Cl)cc1` to `S=C(NCc1ccccc1)Nc1ccc2cn[nH]c2c1`, the “hERG current change (%, negative = inhibition) at 1uM” value falls from 8.15% to 1.27%.

Compared with `CN(C1CCCCC1)S(=O)(=O)c1cccc(C(=O)OCC(=O)NC2CCCc3ccccc32)c1` (stereo not shown), `CN(C(=O)c1ccc(OC2CCN(C(=O)c3cccnc3)CC2)cc1)C1CCCCC1` is higher in “hERG current change (%, negative = inhibition) at 1uM” value: 3.79% for the first, 8.5% for the second.

First: CC(OC(=O)/C(C#N)=C/c1ccc(N(C)C)cc1)C(=O)N(C)Cc1ccccc1 (stereo not shown)
Second: Cc1cnc(C(=O)OCC(=O)N(Cc2ccccc2)C(C)C)cn1
The “hERG current change (%, negative = inhibition) at 1uM” value of the first is lower: 5.88% for the first, 14.4% for the second.

First: COc1cc2nc(-c3ccc(Br)o3)oc(=O)c2cc1OC
Second: CCc1cccc(NC(=O)Cc2ccc(OC)c(OC)c2)c1
The “hERG current change (%, negative = inhibition) at 1uM” value of the first is higher: 11.7% for the first, 3.92% for the second.

First: COc1ccc([N+](=O)[O-])cc1NC(=O)C1CCCCC1C(=O)O (stereo not shown)
Second: COC(CN(C)C(C(=O)NC1CCCCC1)c1ccccc1)OC (stereo not shown)
The “hERG current change (%, negative = inhibition) at 1uM” value of the first is higher: 6.15% for the first, 3.32% for the second.

First: COc1ccc(C(c2sc3nc(C)nn3c2O)N2CCC(C(N)=O)CC2)cc1OC (stereo not shown)
Second: COc1ccc(CCNC(=O)C2(C)CCC(=O)N2Cc2ccc(F)cc2Cl)cc1OC (stereo not shown)
The “hERG current change (%, negative = inhibition) at 1uM” value of the first is lower: -7.46% for the first, 16.2% for the second.

Compared with `O=C(CN1C(=O)NC2(CCCc3ccccc32)C1=O)Nc1cc(F)ccc1F` (stereo not shown), `CC1CC(=O)Nc2ccccc2N1C(=O)Nc1ccc(F)cc1F` (stereo not shown) is higher in “hERG current change (%, negative = inhibition) at 1uM” value: 7.28% for the first, 14.7% for the second.

Compared with `C=CCOc1ccc(/C=C2\SC(=S)N(CCC(=O)O)C2=O)cc1`, `COc1ccc(/C=C/C(=O)c2oc3ccc(F)cc3c2C)cc1` is lower in “hERG current change (%, negative = inhibition) at 1uM” value: 15.8% for the first, 9.81% for the second.

Compared with `CCCCCNc1c(C(=O)OCC)c(=O)[nH]c2ccccc12`, `Cc1cn(C2OC(COC(=O)c3ccccc3)C(O)C2Cl)c(=O)[nH]c1=O` (stereo not shown) is higher in “hERG current change (%, negative = inhibition) at 1uM” value: 4% for the first, 8.3% for the second.

Going from `N#Cc1nc(Cl)c(Cl)c(NN)c1Cl` to `Cc1nc(Cl)sc1C(=O)Nc1cccc(Cl)c1`, the “hERG current change (%, negative = inhibition) at 1uM” value rises from 18.2% to 24.2%.

Compared with `CCOC(=O)C1(Cc2ccccc2)CCCN(Cc2ccncc2)C1` (stereo not shown), `O=C(CN1C(=O)COc2ccccc21)NCCCN1CCN(Cc2ccccc2)CC1` is higher in “hERG current change (%, negative = inhibition) at 1uM” value: 1.89% for the first, 7% for the second.

Going from `CC(=O)N1CN(C(C)=O)CN(C(C)=O)C1` to `CCOC(=O)C1CN(C(C)(C)C)C(=O)C1=O` (stereo not shown), the “hERG current change (%, negative = inhibition) at 1uM” value rises from 6.19% to 16.2%.

Going from `Cc1ccc(NC(=S)N=Nc2c(O)[nH]c3ccccc23)cc1` to `COc1cc(NC(=O)c2ccc(Br)cc2)ccc1NC(=O)c1cc2ccccc2o1`, the “hERG current change (%, negative = inhibition) at 1uM” value falls from 12.5% to 10.9%.

First: CCOC(=O)c1ccc(N2CSC3=C(C#N)C(c4ccc(OC)cc4OC)CC(=O)N3C2)cc1 (stereo not shown)
Second: COc1cc(C(=O)NC2CCCc3c2cnn3-c2ccccc2F)cc(OC)c1OC (stereo not shown)
The “hERG current change (%, negative = inhibition) at 1uM” value of the first is higher: 11.9% for the first, 11.1% for the second.

Compared with `CCC1CCCCN1C(=O)CSc1nnc(-c2ccco2)o1` (stereo not shown), `O=C(CCc1nnc2ccc(N3CCCC3)nn12)Nc1cc(F)ccc1F` is lower in “hERG current change (%, negative = inhibition) at 1uM” value: 11.2% for the first, -9.58% for the second.

Compared with `Cc1nn2c3c(cnc2c1-c1ccccc1)C(=O)CCC3`, `Cc1onc(-c2c(F)cccc2Cl)c1C(=O)N1CCc2ccccc21` is lower in “hERG current change (%, negative = inhibition) at 1uM” value: 10.7% for the first, -12.8% for the second.

Compared with `Cc1cc(-c2nn(-c3ccccc3F)cc2CN2CCN(c3ccncc3)CC2)c(C)s1`, `CCOC(=O)Nc1ccc2c(c1)N(C(=O)C(C)N1CCCC1)c1ccccc1CC2.Cl` (stereo not shown) is higher in “hERG current change (%, negative = inhibition) at 1uM” value: -69.3% for the first, -28.3% for the second.

First: COc1ccc(/C=N/n2c(=O)[nH]c3c([nH]c4ccc(Br)cc43)c2=O)cc1CN1CCOCC1
Second: O=C(/C=C/c1ccc(Cl)cc1)NC(=S)Nc1ccc(N2CCOCC2)c(Cl)c1
The “hERG current change (%, negative = inhibition) at 1uM” value of the first is higher: 10.5% for the first, -11.9% for the second.

First: O=C(Nc1nc2ccccc2s1)c1ccccc1[N+](=O)[O-]
Second: c1ccc(Cc2nnc3sc(Nc4ccccc4)nn23)cc1
The “hERG current change (%, negative = inhibition) at 1uM” value of the first is higher: 11.1% for the first, 4.65% for the second.

First: CCNC(=S)N(Cc1cc2cc(C)c(C)cc2[nH]c1=O)C1CCCC1
Second: CC(=O)N(Cc1cccs1)Cc1cc2ccc(C)c(C)c2nc1Cl
The “hERG current change (%, negative = inhibition) at 1uM” value of the first is higher: 17.4% for the first, 13.1% for the second.

First: c1ccc(C2Oc3ccccc3C3CC(c4cccs4)=NN32)cc1 (stereo not shown)
Second: O=C1C2ON(c3ccccc3)C(c3ccccc3F)C2C(=O)N1c1ccccc1 (stereo not shown)
The “hERG current change (%, negative = inhibition) at 1uM” value of the first is higher: 12.6% for the first, 5.18% for the second.

First: O=C(O)c1cccc(COc2ccc(CO)cc2Cl)c1
Second: O=C(O)CC(Cc1ccc(Cl)cc1)C(=O)Nc1cc(Cl)ccc1Cl (stereo not shown)
The “hERG current change (%, negative = inhibition) at 1uM” value of the first is lower: 4.22% for the first, 18.4% for the second.

Compared with `CSc1ccccc1C(=O)N1CCC2(CC1)CC(=O)c1ccccc1O2`, `S=C(c1ccc(-c2ccccc2)cc1)N1CCOCC1` is higher in “hERG current change (%, negative = inhibition) at 1uM” value: -27.2% for the first, 7.87% for the second.

Compared with `C/C(=N\NC(=O)c1ccoc1C)c1ccc(Br)s1`, `Cc1nc2c(O)cccc2cc1CO` is higher in “hERG current change (%, negative = inhibition) at 1uM” value: 8.15% for the first, 11.9% for the second.

Compared with `CCOC(=O)N1CCN(C(=O)CN2C(=O)NC(c3ccccc3)(c3ccccc3)C2=O)CC1`, `COc1ccc(C2SCCN2S(=O)(=O)c2ccccc2)cc1` (stereo not shown) is lower in “hERG current change (%, negative = inhibition) at 1uM” value: 8.05% for the first, 5.35% for the second.

Compared with `CCCCN1CCc2[nH]c(=S)[nH]c(=O)c2C1`, `CCN1CCN(c2nc3c(c(=O)[nH]c(=O)n3C)n2CCCSc2ncccn2)CC1` is lower in “hERG current change (%, negative = inhibition) at 1uM” value: 8.77% for the first, 3.05% for the second.

Going from `NNC(=O)C1CCN(S(=O)(=O)c2ccc(Cl)cc2)CC1` to `CCN1C(=O)c2cccc3c(S(=O)(=O)N4CCC(C)CC4)ccc1c23`, the “hERG current change (%, negative = inhibition) at 1uM” value falls from 15.2% to 7.25%.

Compared with `C[C@]12C=CC(=O)C=C1CC[C@@H]1C2[C@@H](O)C[C@@]2(C)C1CC[C@]2(O)C(=O)COC(=O)CCC(=O)O` (stereo partly shown), `O=C(NCCS(=O)(=O)NC1CCCC1)c1ccc(F)cc1` is higher in “hERG current change (%, negative = inhibition) at 1uM” value: -0.804% for the first, 19% for the second.

First: Nc1nc(CSCCO)nc(Nc2ccc(F)cc2)n1
Second: CCc1nc(SCc2cccnc2)c(C#N)cc1C
The “hERG current change (%, negative = inhibition) at 1uM” value of the first is higher: 13.1% for the first, -7.01% for the second.

Compared with `CS(=O)(=O)N1CCc2cc(C(=O)Nc3ccccc3Cl)ccc21`, `O=C(OCc1cn(-c2ccc(Cl)c(Cl)c2)nn1)c1ccccc1Cl` is lower in “hERG current change (%, negative = inhibition) at 1uM” value: 1.93% for the first, -8.64% for the second.

First: Cc1ccc(NS(=O)(=O)c2ccc3c(c2)NC(=O)CCS3)cc1F
Second: Cc1cccc(NC(=O)CSC2=NN3CCCC(=O)N=C3S2)c1C
The “hERG current change (%, negative = inhibition) at 1uM” value of the first is higher: 13.1% for the first, 8.16% for the second.

Compared with `CC(Cc1cccnc1)NC(=O)c1cc(COc2c(F)cccc2F)on1` (stereo not shown), `COc1cc(NC(=O)CSc2nnc3ccc(-c4cccnc4)nn23)cc(OC)c1` is lower in “hERG current change (%, negative = inhibition) at 1uM” value: -0.158% for the first, -2.35% for the second.

Going from `CCC(=O)Oc1ccc(/C(CC)=C(\CC)c2ccc(OC(=O)CC)cc2)cc1` to `CN(C(=O)c1ccc(=O)n(Cc2ccc(Cl)cc2)c1)c1ccccc1`, the “hERG current change (%, negative = inhibition) at 1uM” value falls from 14.3% to 13.3%.

Going from `Cl.O=C(Cn1c(NCCCl)nc2ccccc21)c1ccc(Br)cc1` to `CC(C)OC(=O)NC(c1ccccc1)C(Cl)(Cl)Cl` (stereo not shown), the “hERG current change (%, negative = inhibition) at 1uM” value falls from 9.51% to -7.04%.

First: Br.C=CCN1C2=NCCCN2c2ccccc21
Second: Cl.NCC1(c2ccc3c(c2)OCCO3)CCCC1
The “hERG current change (%, negative = inhibition) at 1uM” value of the first is higher: 8.25% for the first, -5.82% for the second.

For `NC(=S)N/N=C/c1ccc([N+](=O)[O-])cc1`, the “hERG current change (%, negative = inhibition) at 1uM” value was 4.45%.

— publication PMC4336329 (PLoS ONE, 2015)
